The text below walks through data of PubChem BioAssay (NCI).

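Interpolation was linear, between the two tested concentrations surrounding the appropriate level; five concentrations were tested over 48 hours in 96-well plates. GI50 is the concentration that inhibits growth by half. At the TGI there is no net growth.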

The experiment concerns NCI-H322M lung. Description: NCI tumour cell line growth inhibition, 48 h.
As to `Nc1nc(N)c2c(n1)NC(c1ccc(Cl)cc1)CC(c1ccc(Nc3nc(NCCO)nc(Nc4ccc(Cl)cc4)n3)cc1)=N2` (stereo unspecified), the GI50 is 2.02 µM and the TGI was determined as 4.89 µM.
In the same order, the values of `O=C(CCCCCCNC(=O)c1csc(Br)n1)NO` are 2.78 µM and over 33.3 µM.
Taken in the same sequence, the figures for `Oc1ccc(CSc2nnc(-c3ccc(Cl)cc3)o2)c2cccnc12` were 1.92 µM and over 100 µM.
